# Source: ChEMBL document CHEMBL4888484, “Replenishing the malaria drug discovery pipeline: Screening and hit evaluation of the MMV Hit Generation Library 1 (HGL1) against asexual blood stage Plasmodium falciparum ,using a nano luciferase reporter read-out” (2022)
# Out of some 4,800 compounds screened, about 410 (8.5%) showed an effect of 50% or more. This is one part of the list.
# System: Plasmodium falciparum
# Assay: Confirmatory screen in NF54 pLDH assay, in single point, at 2uM, 72h
# Type: functional, Erythrocyte
# Settings: timepoint 72 hour
row,SMILES,% Inhibition [%]
1,CCOC(=O)c1cnn(C)c1S(=O)(=O)N1CCCCC1,2
2,COc1ccc([C@H]2[C@H](C(=O)NC3CCCCCC3)CCC(=O)N2C)cc1,-16
3,CCc1nnc2ccc(S(=O)(=O)Nc3ccc(Cl)cc3)cn12,14
4,CCc1cc(C(=O)N2CCC3(CC2)C[C@H](c2ccccc2)C(=O)N3C)no1,-4
5,COc1cccc(S(=O)(=O)N2CCCN(Cc3ccncc3)[C@H](c3ccccc3)CC(=O)NCC2)c1,86
6,Cc1nsc(N[C@@H]2C=C[C@H](CO)C2)n1,7
7,COc1cccc2c(N3CC[C@]4(CNC(=O)C4)C3)nccc12,2
8,Fc1ccccc1N1CCN(c2c3c(nc4nc(Cc5ccc(Cl)cc5)nn24)CCCC3)CC1,7
9,CN1CCCC(CN2C(=O)C3CCCN3C2=O)C1c1cccc(Cl)c1 (stereo not drawn),-5
10,CCn1nc(C)c(CN(C)S(=O)(=O)c2ccc(N3CCCC3=O)cc2)c1C,-1
11,O=C(CC1COCCN1C(=O)C1CCc2ccccc21)c1ccco1 (stereo not drawn),-17
12,c1ccc(Oc2ccc(CNCc3nnc4n3CCCCC4)o2)cc1,9
13,CC(C)(C)OC(=O)NC1CCCN(CC2CN(c3ccc(F)cc3)C(=O)O2)C1 (stereo not drawn),-8
14,O=C(CN1C(=O)c2ccccc2C1=O)N1CC(=O)N2CCc3ccccc3[C@@H]2C1,12
15,Cc1ccc(C)n1[C@@H](CC(=O)O)c1ccco1,3
16,O=C(CN1C(=O)[C@H]2CCCC2=Nc2ccccc21)NCCCc1ccccc1,-17
17,Cc1nnc(CC(=O)NC2CC(OCc3ccccc3)C2(C)C)o1 (stereo not drawn),8
18,Cc1ccc(C(=O)Nc2cc3c4c(c2)C2CCCC2CN4CC2CCCC32)cc1 (stereo not drawn),54
19,COc1ccc(N(C)S(=O)(=O)c2ccsc2-c2nc(-c3cccnc3)no2)cc1Cl,-2
20,C[C@@H]1CN(C[C@@H]2CN(CCOCc3ccccc3)C[C@@H]2CO)C[C@H](C)O1,-4
21,CC1CC1NC(=O)C(NS(C)(=O)=O)C(C)(C)C (stereo not drawn),11
22,Nc1c(-c2ccccc2)nsc1C(=O)NCc1ccccc1,5
23,Cc1cc(C(=O)N[C@@H](C)CO)c(C)n1-c1nccs1,-4
24,CC(=O)OCc1c(C)n(C)c(=O)n(C)c1=O,-5
25,Cn1nc(C(F)(F)F)cc1B1OC(C)(C)C(C)(C)O1,12
26,O=C(CN1CCCCCC1)Nc1ccc(OCc2ccccc2)cc1,-3
27,Cc1c(NC(=O)CCc2ccsc2)nnn1Cc1ccccc1F,-4
28,CC(C)c1nc(NC(=O)c2c[nH]nc2-c2c(F)cccc2F)n(C)n1,9
